Source: publication PMC9119685
These are yes or no findings as the source states them, for the method shown. Binding seen in cells or lysates may run through a third protein. Some results given as binding are weak or reduced against the parent protein; the word gives no strength.

Amino acid sequences for entries named in this document (tags omitted).
UniProt Q05127: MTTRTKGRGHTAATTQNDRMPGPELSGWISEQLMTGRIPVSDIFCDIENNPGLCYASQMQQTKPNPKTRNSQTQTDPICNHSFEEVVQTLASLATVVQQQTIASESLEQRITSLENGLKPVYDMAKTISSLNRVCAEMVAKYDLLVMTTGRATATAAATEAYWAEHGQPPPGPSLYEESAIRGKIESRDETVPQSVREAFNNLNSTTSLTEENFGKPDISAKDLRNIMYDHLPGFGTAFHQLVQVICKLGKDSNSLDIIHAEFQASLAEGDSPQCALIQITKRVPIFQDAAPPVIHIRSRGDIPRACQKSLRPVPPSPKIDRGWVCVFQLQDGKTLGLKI
UniProt P18272: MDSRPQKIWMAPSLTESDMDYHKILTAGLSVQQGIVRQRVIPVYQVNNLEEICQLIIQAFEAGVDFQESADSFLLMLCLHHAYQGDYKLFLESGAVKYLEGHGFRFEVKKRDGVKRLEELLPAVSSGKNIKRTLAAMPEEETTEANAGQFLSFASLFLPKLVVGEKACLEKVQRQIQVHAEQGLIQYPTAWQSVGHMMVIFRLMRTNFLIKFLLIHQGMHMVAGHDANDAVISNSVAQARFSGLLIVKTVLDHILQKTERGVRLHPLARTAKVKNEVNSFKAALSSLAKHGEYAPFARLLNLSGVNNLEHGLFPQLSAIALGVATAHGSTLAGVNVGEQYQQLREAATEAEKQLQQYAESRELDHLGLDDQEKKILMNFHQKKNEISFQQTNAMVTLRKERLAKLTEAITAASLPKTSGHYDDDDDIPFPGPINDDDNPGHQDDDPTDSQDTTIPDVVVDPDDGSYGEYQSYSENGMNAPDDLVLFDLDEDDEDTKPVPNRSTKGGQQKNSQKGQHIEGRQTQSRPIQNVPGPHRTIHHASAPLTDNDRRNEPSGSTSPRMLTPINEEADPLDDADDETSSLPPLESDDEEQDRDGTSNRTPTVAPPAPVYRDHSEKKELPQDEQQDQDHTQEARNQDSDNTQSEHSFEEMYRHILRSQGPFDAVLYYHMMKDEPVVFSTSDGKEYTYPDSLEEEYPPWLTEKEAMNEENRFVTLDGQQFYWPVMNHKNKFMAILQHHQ
UniProt Q14258: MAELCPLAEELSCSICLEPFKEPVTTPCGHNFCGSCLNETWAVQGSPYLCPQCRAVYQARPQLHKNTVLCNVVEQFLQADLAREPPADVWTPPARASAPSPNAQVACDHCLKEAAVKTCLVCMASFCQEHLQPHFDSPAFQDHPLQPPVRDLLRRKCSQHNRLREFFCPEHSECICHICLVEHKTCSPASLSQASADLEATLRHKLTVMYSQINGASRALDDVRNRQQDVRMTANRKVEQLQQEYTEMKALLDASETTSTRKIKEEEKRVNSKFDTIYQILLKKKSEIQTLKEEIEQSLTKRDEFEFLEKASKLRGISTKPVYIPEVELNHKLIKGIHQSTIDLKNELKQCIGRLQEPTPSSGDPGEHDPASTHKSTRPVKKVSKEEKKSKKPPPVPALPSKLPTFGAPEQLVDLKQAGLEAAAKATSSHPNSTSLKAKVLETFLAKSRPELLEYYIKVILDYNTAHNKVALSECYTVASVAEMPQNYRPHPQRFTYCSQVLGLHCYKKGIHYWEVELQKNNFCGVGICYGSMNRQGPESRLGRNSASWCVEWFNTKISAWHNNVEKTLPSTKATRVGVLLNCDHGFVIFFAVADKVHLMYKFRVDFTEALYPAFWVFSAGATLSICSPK

Legend:
Assay in all cases: co-IP
[1] = biological target: Ebola virus VP35 (Ebola virus (EBOV, species Zaire ebolavirus)) (UniProt Q05127)
[2] = biological target: Ebola virus nucleoprotein (NP) (Ebola virus (EBOV, species Zaire ebolavirus)) (UniProt P18272)
[3] = biological target: tripartite-motif family member 25 (TRIM25), wild type (human) (UniProt Q14258)

Substance | binding [1] | binding [2] | binding [3]
tripartite-motif family member 25 (TRIM25), wild type (from UniProt Q14258 1-630) | binds | binds | 
Ebola virus nucleoprotein (NP) (from UniProt P18272 1-739) |  |  | binds
zinc-finger antiviral protein, long splice variant (ZAP-L) (from UniProt Q7Z2W4-1 1-902) |  |  | binds
